Among all 310,000 compounds or so, about 2,200 (0.71%) showed an effect of 50% or more. Effects have a minus sign here. This is one part of the list.

The target of the test is human ether-à-go-go-related gene (hERG) potassium channel (human, UniProt Q12809). In words: primary screen, population patch clamp on CHO cells stably expressing hERG.
Sequence of human ether-à-go-go-related gene (hERG) potassium channel (Q12809 whole entry, looked up): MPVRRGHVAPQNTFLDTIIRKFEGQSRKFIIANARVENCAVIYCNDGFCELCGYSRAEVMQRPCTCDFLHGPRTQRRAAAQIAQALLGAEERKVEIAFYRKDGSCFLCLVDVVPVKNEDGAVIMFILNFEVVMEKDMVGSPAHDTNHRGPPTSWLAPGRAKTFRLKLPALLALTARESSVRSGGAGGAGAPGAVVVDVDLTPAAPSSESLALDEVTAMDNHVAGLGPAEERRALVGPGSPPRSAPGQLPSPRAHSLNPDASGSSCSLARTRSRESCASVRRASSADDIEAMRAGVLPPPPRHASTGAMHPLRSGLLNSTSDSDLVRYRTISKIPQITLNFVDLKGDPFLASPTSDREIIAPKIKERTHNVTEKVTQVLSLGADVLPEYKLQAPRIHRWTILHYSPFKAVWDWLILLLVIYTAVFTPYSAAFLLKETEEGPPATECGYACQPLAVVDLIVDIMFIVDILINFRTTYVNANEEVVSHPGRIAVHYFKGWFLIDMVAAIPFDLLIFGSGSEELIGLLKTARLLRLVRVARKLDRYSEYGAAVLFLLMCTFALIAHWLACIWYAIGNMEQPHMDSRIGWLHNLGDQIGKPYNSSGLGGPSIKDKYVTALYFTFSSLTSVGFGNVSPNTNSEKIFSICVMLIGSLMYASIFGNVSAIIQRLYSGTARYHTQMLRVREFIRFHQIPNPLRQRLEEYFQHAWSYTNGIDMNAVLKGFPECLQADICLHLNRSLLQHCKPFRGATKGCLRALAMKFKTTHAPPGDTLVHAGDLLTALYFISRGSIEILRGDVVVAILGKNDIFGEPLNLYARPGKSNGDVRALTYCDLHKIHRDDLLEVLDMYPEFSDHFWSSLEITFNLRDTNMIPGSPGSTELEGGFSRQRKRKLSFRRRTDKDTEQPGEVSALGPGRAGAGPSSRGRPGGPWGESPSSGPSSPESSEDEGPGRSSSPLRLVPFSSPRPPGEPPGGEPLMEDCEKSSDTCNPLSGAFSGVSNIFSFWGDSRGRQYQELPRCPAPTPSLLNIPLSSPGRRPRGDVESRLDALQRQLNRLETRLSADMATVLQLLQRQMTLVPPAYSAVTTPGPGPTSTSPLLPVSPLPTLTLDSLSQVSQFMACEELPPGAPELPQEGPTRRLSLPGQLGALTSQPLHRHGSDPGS
Take `O=C(CN1C(=O)NC2(CCCC2)C1=O)N1CCN(C(=O)c2ccco2)CC1`: the “hERG current change (%, negative = inhibition) at 1uM” value came to 6.64%.

Turning to `C/C(=C\C(=O)c1ccccc1)Nc1ccc(O)cc1`, the “hERG current change (%, negative = inhibition) at 1uM” value turned out to be 13%.

With `COc1ccc(-c2cc(C(=O)N(C)Cc3ccc(F)cc3)c3ccccc3n2)cc1OC`, the “hERG current change (%, negative = inhibition) at 1uM” value is reported as 19.9%.

As for `CCOc1ccc(S(=O)(=O)N2CCOCC2)cc1NC(=O)Cc1c(F)cccc1Cl`, the “hERG current change (%, negative = inhibition) at 1uM” value is given as 12.7%.

For `c1ccc2c(CN3CCOCC3)c3ccccc3c(CN3CCOCC3)c2c1`, the “hERG current change (%, negative = inhibition) at 1uM” value came out at 17.3%.

For `COc1ccc(C(=O)COC(=O)c2ccccn2)cc1OC`, the “hERG current change (%, negative = inhibition) at 1uM” value came out at 5.63%.

In the case of `CCCNC(=O)Cc1c(C)oc2ccccc12`, the “hERG current change (%, negative = inhibition) at 1uM” value is reported as 7.97%.

As for `OCC#CCSc1nnc(-c2ccc(Br)cc2)o1`, the “hERG current change (%, negative = inhibition) at 1uM” value is 5.91%.

On to `CC(=O)Nc1ccc(NC(=O)C(C)OC(=O)c2ccc(N(C)C)cc2)cc1` (stereo not shown), for which the “hERG current change (%, negative = inhibition) at 1uM” value was found to be 17.4%.

As for `CCOC(=O)c1ccc(NC(=O)/C=C/c2cccs2)cc1`, the “hERG current change (%, negative = inhibition) at 1uM” value is given as 6.07%.

Consider `COc1ccc(-c2nc(C(F)(F)F)c(OC)o2)cc1OC`, for which the “hERG current change (%, negative = inhibition) at 1uM” value turned out to be 14.6%.

In the case of `On1nnc2ccc(C(F)(F)F)cc21`, the “hERG current change (%, negative = inhibition) at 1uM” value was determined as 16.8%.

With `CCCCc1cc(=O)oc2cc(C)cc(OCc3nn[nH]n3)c12`, the “hERG current change (%, negative = inhibition) at 1uM” value came out at 0.321%.

Turning to `O=C(Nc1ccc2oc(-c3ccccc3Cl)nc2c1)c1cncc(Br)c1`, the “hERG current change (%, negative = inhibition) at 1uM” value is recorded as -4.62%.

For the molecule `Cn1cc(CCC(=O)N2CCCC(C(=O)c3ccc(C(C)(C)C)cc3)C2)cn1` (stereo not shown), the “hERG current change (%, negative = inhibition) at 1uM” value was -7.59%.

Regarding `O=C(c1c[nH]c2ccc(S(=O)(=O)N3CCC4(CC3)OCCO4)cc2c1=O)N1CCC2(CC1)OCCO2`, the “hERG current change (%, negative = inhibition) at 1uM” value is given as 7.15%.

In the case of `Cn1c(N)c(C(c2ccccc2)c2c(N)n(C)c(=O)n(C)c2=O)c(=O)n(C)c1=O`, the “hERG current change (%, negative = inhibition) at 1uM” value is 1.37%.

Consider `COc1ccc(N2CCN(Cc3cc(=O)oc4cc(-c5ccccc5)c(O)cc34)CC2)cc1`, for which the “hERG current change (%, negative = inhibition) at 1uM” value is 7.08%.

Take `Cc1ccc(-c2nc3ccccc3[nH]2)cn1`: the “hERG current change (%, negative = inhibition) at 1uM” value is given as 15.7%.

As to `CN(C)N(C(=O)c1cc(-c2cccs2)nn1-c1ccccc1)C1CCS(=O)(=O)C1` (stereo not shown), the “hERG current change (%, negative = inhibition) at 1uM” value was determined as 8.14%.

As to `O=C(Nc1ccccc1-c1ccccc1)C1CCC1`, the “hERG current change (%, negative = inhibition) at 1uM” value is recorded as 16.6%.

For the molecule `Cc1cc(N2CCN(C)CC2)nc(=S)[nH]1`, the “hERG current change (%, negative = inhibition) at 1uM” value is 10.6%.

Turning to `COC(=O)Cc1c(C)c2ccc(OCC(=O)N3CCC(C)CC3)c(C)c2oc1=O`, the “hERG current change (%, negative = inhibition) at 1uM” value was determined as 1.92%.

Take `Nc1ccccc1OCCOc1ccccc1N`: the “hERG current change (%, negative = inhibition) at 1uM” value was found to be 9.18%.

For `Cn1c(=O)n(C)c2cc(NS(=O)(=O)c3ccc(C(C)(C)C)cc3)ccc21`, the “hERG current change (%, negative = inhibition) at 1uM” value is given as 10.2%.

The record behind these values is PMC4336329 (PLoS ONE, 2015).
